# This sample is rich in variants without activity.
# B1: TPR 5TU (parent)
# chain: GGAUCUUCUCGAUCUAACAAAAAAGACAAAUCUGCCACAAAGCUUGAGAGCAUCUUCGGAUGCAGAGGCGGCAGCCUUCGGUGGCGCGAUAGCGCCAACGUUCUCAACUAUGACACGCAAAACGCGUGCUCCGUUGAAUGGAGUUUAUCAUG
# Variants of: B1
# Assay: polymerase ribozyme fitness, log enrichment relative to wild type (log ratio); higher = more active; in vitro selection for triplet polymerase activity
# Procedure, shortened: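 Only genotypes with ≥10 input reads and ≥1 read per output were kept after Illumina sequencing of input and output libraries. These libraries were PCR-built, transcribed mutants of each subunit of a heterodimeric triplet polymerase ribozyme, each put through one triplicate in vitro selection round with frozen incubation at −7 °C, gel excision of extended constructs, streptavidin-bead capture and RT-PCR. Fitness is a logarithmic ratio of genotype enrichment to wild-type enrichment, from inverse-variance-weighted replicate averages, with the logarithm in base 2.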
row,Variant,polymerase ribozyme fitness (log ratio)
1,U9C A40U G58A G94A A107U,≤ -4.2
2,U9G C87G C93U C125A,≤ -4.2
3,U9A A23U A49C G50A C87G A91G C103G G117A G128U U139A,≤ -4.2
4,C8U G71A,≤ -4.2
5,C10A A29C U44G G58A A60G A97U G141C,≤ -4.2
6,U9G A12G A40C A41C A107U C108G G117C,≤ -4.2
7,U9G A16C A30C G34A G58U C93G C105A A110G C118U C149U,-4.17
8,C10A A37U G48A A64G G128U A142C,≤ -4.2
9,U9C A23U C35A G50C C79G U134G,≤ -4.2
10,U9C C85U,-3.24
11,U9G A17C A37C G42C U55A C75G G83A C105U G141C,≤ -4.2
12,U9C U31G C36G U44G C69U A91U,≤ -4.2
13,C10A A37U C76U G92U C99G G100U A137G,≤ -4.2
14,U9G C10A C18U A66U G81U C96U,≤ -4.2
15,U9A G11U C32G C43G A49C U61C G65C C76A C103G A106C,≤ -4.2
16,U9C A60C U82A G84U U102G G126U,≤ -4.2
17,C8U U13C A22G C93U G126A,-1.08
18,U9A A91C C116G U148A,-3.93
19,U9C A40C U56A C96G U101C U134C,≤ -4.2
20,U9C C108A,≤ -4.2
21,U9G G59C G62C C85A U109G C129G G143C,≤ -4.2

row,Variant,polymerase ribozyme fitness (log ratio)
1,C10A A22G C87A A91G G94U G117U,≤ -4.2
2,C8U U13A A40C U44G C93G,≤ -4.2
3,U9A U55A U90G G126C,≤ -4.2
4,U9C C43G G65A G67C C95A,-4.09
5,U9G U55A A115G C116U,≤ -4.2
6,U9G A24U C96U U144G,≤ -4.2
7,U9A C14U A19U C27U U56A G86U C93G A97U G124U U144C,≤ -4.2
8,U9G A12U A40G U45A A73U C79A G94C A113U,≤ -4.2
9,U9G G58C,≤ -4.2
10,C10A A23C G25C G92A A113U,≤ -4.2
11,C10A A17C A19C G84A U90A C129A A147U,≤ -4.2
12,U9A G11A C14U A28U G46U,≤ -4.2
13,U9A A16G U53A G58C A110U U134C U135A,≤ -4.2
14,U9G A60G G80C C93A U109A,≤ -4.2
15,U9A G86A C93U G141C,≤ -4.2
16,U9A A23U C32G C54G G92U U101C G140U,≤ -4.2
17,U9G U53A A91G G94C G143A,≤ -4.2
18,U9A A19C C38A G86A G94C U148C,≤ -4.2
19,C10A A17C G42U A110G C125U,≤ -4.2
20,U9A G48U A52G U53A C85G C95A G152C,≤ -4.2
21,C8U G46A C54G U77A C93U U130G G141C,≤ -4.2

row,Variant,polymerase ribozyme fitness (log ratio)
1,U9C A21C C76A G94A C103A U144G,≤ -4.2
2,U9A U53A U78G G86A A147C,≤ -4.2
3,U9A A24U A121U A122U G141A,≤ -4.2
4,U9A A64G A89U G92A C131G,≤ -4.2
5,U9A C125G,≤ -4.2
6,U9G C27A G84U C114U C125G G143A,≤ -4.2
7,U9G C35U A52C U61A C87A U101C C125A,≤ -4.2
8,U9C U102A U139G,≤ -4.2
9,U9A C14U A29U A66C C72A U78G G81A C96G A107C C125A,≤ -4.2
10,U9C A20U U55G A107U C116U,≤ -4.2
11,U9G A29U U45G C75A G88U C96A G141A,≤ -4.2
12,C10A A22C A26G A49C,≤ -4.2
13,U9G C35A A39G G83U G92C,≤ -4.2
14,U9A U56A C95U A98U G141C G143C G152C,≤ -4.2
15,U9C A19C A22C U56C C87A A89U G124A G141C U151A,≤ -4.2
16,U9A A17U G58A U151A,≤ -4.2
17,U9G G11C G46C C57G C87G U90C,≤ -4.2
18,U9A C27G U44A U55A C87A C105G,≤ -4.2
19,U9C U13G A41C U56C C87U G88C A142G U151G,≤ -4.2
20,C10A A17U A19G G58C A97G A142C,≤ -4.2
21,U9G A16U C27A A37U A41G G58U A91U A110C U134A G141C,≤ -4.2

row,Variant,polymerase ribozyme fitness (log ratio)
1,U9G A22U A23C A30U C51U G58C G92U C149G,≤ -4.2
2,C8U U56A A89U C93U,≤ -4.2
3,U9A A19U A41C C93U C103G A115U,≤ -4.2
4,U9G G68C G83A G84A C149U,≤ -4.2
5,C10A A40C G50A C95U U148C,≤ -4.2
6,U9A C32A U33G A49U C51U U53A C54U G84U C103A C108G C118G C149U,≤ -4.2
7,U9G A41U U53A C96A U102A A150U,≤ -4.2
8,U9A A29G A39C G42A U53A G80C G83A G92A G94C A121U,≤ -4.2
9,U9A C63U G71A C87U U90C A107G G133C,≤ -4.2
10,U9G A12U A19U A21U G58A C76U G84A A106U,≤ -4.2
11,U9C C18G A21G A29U C87G,≤ -4.2
12,U9G U45G U56G G58A C85U G92A A97U,≤ -4.2
13,C10A A20G A40C C54U G83A G92A C131G G141U A150U,≤ -4.2
14,U9G A16G C43G G59U A89C A142C,≤ -4.2
15,U9A C18G A52G G58C A138G,≤ -4.2
16,C8U U45A C87U C93U C105U,≤ -4.2
17,U9C G84A C103U,≤ -4.2
18,U9G A17G G58A G65A C93U G133A,≤ -4.2
19,U9C G86U C103A C116G U139G,≤ -4.2
20,U9G A24G U53A G67A C75G C87G,≤ -4.2

# Reference: the RNAGym collection of RNA variant scans (doi:10.1073/pnas.2313332121)
